Out of some 150,000 compounds screened, about 540 (0.36%) showed an effect of 50% or more. The list shows a part of the results.

The values below come from ChEMBL document CHEMBL4888484, “Replenishing the malaria drug discovery pipeline: Screening and hit evaluation of the MMV Hit Generation Library 1 (HGL1) against asexual blood stage Plasmodium falciparum ,using a nano luciferase reporter read-out” (2022).

This assay has as its system Plasmodium falciparum. The assay can be described thus: Primary screen in NF54 nanoGlo assay, in single point, at 2uM, 72h; a lower Z score goes with more inhibition. It counts as functional, Erythrocyte. The note with it: timepoint 72 hour.
As a reminder, the % Inhibition is the change of the read-out against control, counted positive when it falls. For `Cn1c(=O)[nH]c(=O)c2c1nc(N1CCN(CC=Cc3ccccc3)CC1)n2Cc1cccc(Cl)c1`, the “% Inhibition” value is listed as -4% and the Z score came out at 0.78.
Taken in the same sequence, the figures for `CN1N=C(C(=O)N2CCC[C@H](Nc3ccc4c(c3)OCCO4)C2)CCC1=O` were -12% and 2.17.
In the same order, the values of `CCN(CC(N)=O)c1nc(C(C)C)nc(N(C)C)n1` are 14% and -1.84.
In the same order, the values of `Cc1nn(-c2ccccc2)c2sc(-c3noc(-c4ccccc4)n3)cc12` are 10% and -1.2.
With `FC(F)(F)c1ccc(N2CCCN(Cc3nc4ccccc4o3)CC2)nc1`, the “% Inhibition” value is -8% and the Z score was 0.8.
Taken in the same sequence, the figures for `CC(C)(C)c1cc([C@H](c2ccc(Cl)cc2)N2CCCCC2)cc(C(C)(C)C)c1O` were 31% and -0.27.
Taken in the same sequence, the figures for `C=CCC[C@@H](CN(C)CC(=O)N(C)C)Oc1nccc(N(C)CC)n1` were -7% and 0.77.
In the same order, the values of `O[C@@H]1COCCN(Cc2ccccc2F)C1` are -8% and 1.53.
For `Cc1ccc(CN2CCCN(c3ncnc4c3cnn4C)CC2)cc1`, the “% Inhibition” value is reported as -8% and the Z score turned out to be 1.19.
Taken in the same sequence, the figures for `CN1C[C@@H]2CN(C(=O)CCc3ccccc3)CCN2C(C)(C)C1` were 32% and -3.63.
In the same order, the values of `Cc1nn2c3c(c(C(=O)O)nc2c1-c1ccccc1)CCO3` are -16% and 1.49.
In the same order, the values of `O=S(=O)(CCC(F)(F)F)N1C2CCC1CC(n1cccn1)C2` (centres undefined) are -15% and 1.9.
As for `COC(=O)[C@H]1CCn2c(CCC3CCCCC3)nnc2C1`, the “% Inhibition” value was -4% and the Z score is recorded as 0.61.
Taken in the same sequence, the figures for `CCN(Cc1ccc(N(C)C)cc1)C(=O)c1cnn(-c2ccc(=O)[nH]n2)c1C` were 0% and 0.02.
In the same order, the values of `O=C(c1ccc2cn[nH]c2c1)N1CCN(c2cccc(Cl)c2)CC1` are -9% and 0.91.
Consider `COc1ccc(Nc2ncnc3c(-c4ccc(C)cc4)noc23)c(OC)c1`, for which the “% Inhibition” value was -4% and the Z score is 0.6.
On to `Cc1cc(=O)[nH]c(N2CCC[C@H](NS(=O)(=O)CC3CCC3)C2)n1`, for which the “% Inhibition” value amounted to 19% and the Z score was -2.36.
In the same order, the values of `Cc1cnccc1CN(C)C(=O)c1cccc(S(=O)(=O)N2CC(O)C2)c1` are -6% and 1.15.
On to `Nc1sc(Cc2cccc(Cl)c2)c[n+]1CC(=O)c1ccc(F)cc1`, for which the “% Inhibition” value is recorded as 27% and the Z score is given as -3.07.
For the compound `C[C@@H](c1cccc(C(F)(F)F)c1)S(=O)(=O)Cc1cnn(C(C)(C)C)c1`, the “% Inhibition” value was -28% and the Z score amounted to 3.31.
In the case of `CCc1ccc(CN(C)C[C@H](C)n2cncn2)nc1`, the “% Inhibition” value was -14% and the Z score is recorded as 1.89.
As for `CNC(=O)Nc1cccc(NC(=O)NC)n1`, the “% Inhibition” value is -7% and the Z score is on record as 0.78.
Taken in the same sequence, the figures for `Cc1ccc(F)c(N2CCC(NC(=O)c3nn(-c4ccccc4)c(C)cc3=O)CC2)c1` were -2% and 0.27.
Regarding `O=C(CCc1ccc2c(c1)OCCO2)Nc1cccc(C(=O)NC2CC2)c1`, the “% Inhibition” value is -7% and the Z score is reported as 0.95.
Taken in the same sequence, the figures for `CCC(=O)[C@@H]1CCCCN1C(=O)c1ccn2ccnc2c1` were -12% and 1.63.
In the same order, the values of `N#Cc1ccc(CNC(=O)NCC(=O)N2CCCC2)c(F)c1` are -13% and 1.68.
In the case of `Cc1noc(C)c1C[C@H](C)NC(=O)Nc1cnn(C(C)C)c1`, the “% Inhibition” value is given as -3% and the Z score is 0.33.
Taken in the same sequence, the figures for `Cn1nc2c(c1CNCc1ccco1)CCC2` were -12% and 1.41.
Taken in the same sequence, the figures for `O[C@H]1CC[C@@H](c2nc(C3CC3)nn2-c2ccc(Cl)cc2)CC1` were -10% and 1.15.
In the same order, the values of `Cc1ccnc(NC(=O)[C@H](Cc2ccccc2)NS(=O)(=O)c2ccc3c(c2)c(=O)n(C)c(=O)n3C)c1` are 1% and -0.13.
For `Cc1nc(-c2cccnc2)nc(NCc2nnc3n2CCCCC3)c1C`, the “% Inhibition” value was -8% and the Z score is on record as 1.03.
In the same order, the values of `CCC(CC)C(=O)Nc1ccc(Oc2c(C)c(C(=O)O)nn2CC)c(S(=O)(=O)N[C@@H](C)CC)c1` are -17% and 1.68.
In the same order, the values of `O=C(NCC(=O)N1CCC[C@H](c2[nH]ncc2-c2ccccc2)C1)c1ccccc1` are -14% and 1.68.
Taken in the same sequence, the figures for `COc1ccccc1N1CCN(C(=O)c2sc(N3CCCC3=O)nc2C(C)C)CC1` were -12% and 1.09.
On to `O=C(O)c1ccc(C(=O)N(C[C@H]2CCCO2)C2CCCC2)cn1`, for which the “% Inhibition” value is -7% and the Z score was 1.05.
Taken in the same sequence, the figures for `COc1ccc(-c2nc3ccc(C(=O)NC[C@H]4CCCO4)cc3nc2-c2ccc(OC)c(OC)c2)cc1OC` were 13% and -1.53.
Taken in the same sequence, the figures for `Cc1cccc(CNC(=O)c2nc(-c3oc4c(C)cccc4c3C)no2)c1` were -9% and 1.17.
In the same order, the values of `Cc1ccc(Br)cc1CNC(=O)NCCCO` are -7% and 1.35.
For the compound `CCc1ccc(C(=O)NC(C)(C)CN(C)C)[nH]1`, the “% Inhibition” value is given as -2% and the Z score was determined as 0.45.
In the same order, the values of `O=C(c1ccccc1-n1ccnn1)N1Cc2cn[nH]c2C1` are -8% and 1.59.
As for `Cc1cccc(N2CCN(C(=O)Cn3ncn4nc(-c5ccccc5)cc4c3=O)C[C@@H]2C)c1`, the “% Inhibition” value was -28% and the Z score is on record as 2.49.
In the same order, the values of `O=C(Nc1cccc(N2CCCC2=O)c1)c1cccc2ccccc12` are -9% and 1.85.
In the case of `O=C(CN1CCCCCC1)N1CCCN(C(=O)C(F)(F)F)CC1`, the “% Inhibition” value is reported as -8% and the Z score worked out at 0.86.
In the same order, the values of `O=C(CCc1ccsc1)N1CCC(c2nc3cc(Cl)ccc3o2)CC1` are -8% and 1.45.
For the compound `NC(=O)c1nnn(-c2cccnc2)c1N`, the “% Inhibition” value is reported as -12% and the Z score is 1.63.
In the same order, the values of `Cc1nc(C(=O)NC[C@H]2CN(c3nncs3)CCO2)c(C)s1` are 37% and -5.36.
In the same order, the values of `Cc1ccc(S(=O)(=O)Nc2cnc(N3CCNCC3)c(C(=O)NC(C)C)c2)c(C)c1` are 1% and -0.1.
Taken in the same sequence, the figures for `CC(=O)N1CC[C@H]2CN(S(=O)(=O)c3ccccc3)C[C@@]2(CO)C1` were -12% and 1.68.
`Cc1nnc2c(N3CCN(C(=O)c4ccsc4)CC3)nccn12`: the “% Inhibition” value is -18% and the Z score is recorded as 3.15.
Taken in the same sequence, the figures for `Cc1ccc(N(C)Cc2nc3ccccc3c(=O)[nH]2)c(C)c1` were -6% and 0.78.
In the same order, the values of `O=C(c1ccncn1)N1C2CCC1Cn1c(nn(CC3CC3)c1=O)C2` (centres undefined) are -6% and 0.85.
Taken in the same sequence, the figures for `Cc1ccccc1N1CCC(N[C@@H](C)CCCC(C)(C)O)CC1` were -25% and 2.26.
Regarding `COc1ccc(NC(=O)c2ccc(-c3noc(C4CCCC4)n3)cc2)cc1`, the “% Inhibition” value is listed as -13% and the Z score turned out to be 1.3.
In the same order, the values of `COc1ccccc1C1(CNC(=O)c2cc3c(s2)CCC3)CCOCC1` are -17% and 1.78.
In the same order, the values of `COc1ccc(Oc2nc(N3CCC(C)CC3)nc3c2CN(C(=O)c2ccccc2OC)CC3)cc1` are 18% and -2.2.
In the same order, the values of `CC(=O)c1cccc(C(=O)N2C[C@@H]3CC[C@H]2CN(S(=O)(=O)N(C)C)C3)c1` are -9% and 1.8.
As to `Cc1cc(C)cc([C@@H](O)CNC(=O)c2cncnc2-c2ccccc2)c1`, the “% Inhibition” value was -16% and the Z score was determined as 1.44.
`Cc1ccc(S(=O)(=O)NC(C(=O)OC(C)C(=O)N2CCOCC2)C(C)C)cc1C` (centres undefined): the “% Inhibition” value is listed as 2% and the Z score is -0.32.
In the same order, the values of `COC1(CNC(=O)Nc2ccc(C)cn2)CCC1` are -7% and 1.3.
Consider `Cc1cc(CN(C)C(=O)c2ccc(C#N)c(C)n2)no1`, for which the “% Inhibition” value is -7% and the Z score is recorded as 0.83.
Taken in the same sequence, the figures for `O=C(C1CCN(c2ccc(F)c(F)c2)C1=O)N1CCCC(c2nnn[nH]2)C1` (centres undefined) were 4% and -0.74.
In the same order, the values of `CN(C)c1ccc([C@H](CNC(=O)c2cccc(Cl)c2)N2CCOCC2)cc1` are 3% and -0.48.
In the same order, the values of `Fc1ccccc1-c1noc(-c2nc(-c3ccncc3)no2)n1` are -24% and 2.17.
For `CC(C)Oc1ccc(C(=O)N2CCC(c3nnc(C(F)(F)F)o3)CC2)cc1`, the “% Inhibition” value is -6% and the Z score amounted to 0.95.
In the same order, the values of `COc1cc2c(cc1OC)CN(C(=O)CN1CCC[C@H](O)C1)CC2` are -4% and 0.6.
Taken in the same sequence, the figures for `CCn1nccc1C1NC(=O)CCC1NC(=O)C(C)OCC(C)C` (centres undefined) were 0% and 0.02.
In the same order, the values of `O=C(c1ccc2nncn2c1)N1CCC(COc2ccccn2)CC1` are 2% and -0.21.
For the compound `O=C(c1cccnc1)N1C[C@H]2CC[C@@H](C1)N(C/C=C/c1ccc(F)cc1)C2`, the “% Inhibition” value stood at 1% and the Z score is -0.14.
In the same order, the values of `COc1ccc(F)cc1CN1CCS(=O)(=O)C[C@H]1c1ccccc1` are 0% and -0.02.
In the same order, the values of `COC(=O)c1cccc(NS(=O)(=O)c2ccc(OC)c(C(=O)N3CCOCC3)c2)c1C` are -2% and 0.3.
Taken in the same sequence, the figures for `COc1ccc(-c2cc(C(=O)Nc3ncc[nH]3)n[nH]2)cc1OC` were 34% and -2.42.
On to `CN(C)[C@H]1CCCN(C(=O)Nc2ccc(CC(F)(F)F)cc2)CC1`, for which the “% Inhibition” value was -6% and the Z score amounted to 0.79.
Taken in the same sequence, the figures for `CC(C)c1cc(C(=O)N2CCC[C@@H]2CC(=O)c2ccccc2)n[nH]1` were -9% and 0.92.
Taken in the same sequence, the figures for `CCc1ccc(C(=O)N(C)C[C@H]2CCCCO2)[nH]1` were -6% and 1.1.
Taken in the same sequence, the figures for `CC(=O)Nc1ccc(CN2C[C@@H](F)[C@@H](OCc3nc4ncccc4[nH]3)C2)cc1` were 17% and -2.
For the compound `Fc1cccc(Cn2ccnc2-c2cccs2)c1`, the “% Inhibition” value is -9% and the Z score was found to be 1.24.
In the case of `CN(C)[C@H]1CN(Cc2ccco2)C[C@@H]1C1CC1`, the “% Inhibition” value was -14% and the Z score came out at 2.48.
On to `O=C(Nc1ccc(Oc2ccc3nsnc3c2)c(Cl)c1)c1cc(Cl)ccc1O`, for which the “% Inhibition” value is 5% and the Z score is reported as -0.45.
In the same order, the values of `C[C@H](NC(=O)c1n[nH]c2ccccc12)c1ccncc1` are -8% and 0.64.
In the same order, the values of `Cc1cc(CC(=O)N[C@@H](C(=O)O)c2ccc(F)c(C)c2)no1` are 4% and -0.48.
With `C[C@@H]1OC2(CCN(Cc3noc(Cc4ccccc4)n3)CC2)NC1=O`, the “% Inhibition” value was -5% and the Z score is 0.76.
Regarding `Cc1ccc2oc(-c3nnc(C(=O)NCCCN4CCCC4)o3)c(C)c2c1`, the “% Inhibition” value was 14% and the Z score was -1.68.
